{"source": "paper PMC4336329", "about": "(PLoS ONE, 2015)", "note": "Screen size: about 310,000 compounds; about 2,200 (0.71%) showed an effect of 50% or more. Effects have a minus sign here. This is one part of the list. Where a SMILES comes first, the peptide text is derived from it. The star is where a group is joined. Bz = O=C(c1ccccc1)*", "data": [{"biological_target": "human ether-à-go-go-related gene (hERG) potassium channel (human, UniProt Q12809)", "sequence (Q12809 whole entry, looked up)": "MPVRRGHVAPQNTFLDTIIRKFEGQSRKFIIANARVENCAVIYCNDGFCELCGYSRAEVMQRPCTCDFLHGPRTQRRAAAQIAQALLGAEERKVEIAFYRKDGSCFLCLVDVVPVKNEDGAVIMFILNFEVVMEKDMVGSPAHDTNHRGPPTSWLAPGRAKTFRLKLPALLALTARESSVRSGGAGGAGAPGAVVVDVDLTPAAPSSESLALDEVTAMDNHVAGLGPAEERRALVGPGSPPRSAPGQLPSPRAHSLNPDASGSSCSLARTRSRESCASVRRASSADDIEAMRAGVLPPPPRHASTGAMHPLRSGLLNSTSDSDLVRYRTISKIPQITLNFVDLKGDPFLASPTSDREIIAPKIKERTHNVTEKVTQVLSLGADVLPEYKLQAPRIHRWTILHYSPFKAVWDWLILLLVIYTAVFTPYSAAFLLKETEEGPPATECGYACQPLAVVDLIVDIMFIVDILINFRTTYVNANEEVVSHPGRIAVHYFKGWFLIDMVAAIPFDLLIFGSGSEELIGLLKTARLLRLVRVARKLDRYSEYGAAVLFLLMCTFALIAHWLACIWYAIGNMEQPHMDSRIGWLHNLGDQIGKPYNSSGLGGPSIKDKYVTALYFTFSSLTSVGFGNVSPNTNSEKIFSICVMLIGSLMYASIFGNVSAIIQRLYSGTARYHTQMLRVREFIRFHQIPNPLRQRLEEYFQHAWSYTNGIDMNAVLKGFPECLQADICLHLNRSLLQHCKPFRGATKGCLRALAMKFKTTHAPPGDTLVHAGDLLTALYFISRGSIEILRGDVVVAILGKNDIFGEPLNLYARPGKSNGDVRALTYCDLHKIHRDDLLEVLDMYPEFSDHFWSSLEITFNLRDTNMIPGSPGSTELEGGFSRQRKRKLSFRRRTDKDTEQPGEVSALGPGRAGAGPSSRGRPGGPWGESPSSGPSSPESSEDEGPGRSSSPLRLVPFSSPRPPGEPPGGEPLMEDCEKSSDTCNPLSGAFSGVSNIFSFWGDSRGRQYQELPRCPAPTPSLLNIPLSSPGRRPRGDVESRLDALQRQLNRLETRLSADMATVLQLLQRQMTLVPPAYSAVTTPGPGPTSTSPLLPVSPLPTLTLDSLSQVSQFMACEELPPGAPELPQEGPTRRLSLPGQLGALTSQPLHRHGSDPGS", "experiment": "primary screen, population patch clamp on CHO cells stably expressing hERG", "units": {"hERG current change (%, negative = inhibition) at 1uM": "%"}, "values": [{"smiles": "O=C(C1=C[C@@H](C2CCCCC2)C[C@@H](OCc2ccc(CO)cc2)O1)N1CCN(Cc2ccccc2)CC1", "hERG current change (%, negative = inhibition) at 1uM": 3.82}, {"smiles": "COc1ccc(CC(=O)NC(C)c2nnc(SCCOc3ccc(OC)cc3)n2C)cc1", "note": "(centres unmarked)", "hERG current change (%, negative = inhibition) at 1uM": 4.62}, {"smiles": "Cc1cc(Cl)c(OCCCn2cncn2)c(Br)c1", "hERG current change (%, negative = inhibition) at 1uM": 3.58}, {"smiles": "CCOC(=O)c1cnc2c(Cl)cccc2c1NCCN(C)C.Cl", "hERG current change (%, negative = inhibition) at 1uM": 5.63}, {"smiles": "CCc1ccc(NC(=O)c2cc(-c3cccs3)on2)cc1", "hERG current change (%, negative = inhibition) at 1uM": 14.4}, {"smiles": "CCOC(=O)c1ccc(N=C2S/C(=C\\c3cc(C)n(-c4cccnc4)c3C)C(=O)N2C)cc1", "hERG current change (%, negative = inhibition) at 1uM": 12.1}, {"smiles": "Cc1ccc(CN2CCC(N3CC(C)OC(C)C3)CC2)cc1.Cl", "note": "(centres unmarked)", "hERG current change (%, negative = inhibition) at 1uM": 7.04}, {"smiles": "COc1ccc(-c2nnc3n2N=C(C)CS3)cc1", "hERG current change (%, negative = inhibition) at 1uM": 7.88}, {"smiles": "O=C(CN1CCN(S(=O)(=O)c2ccc(Cl)cc2)CC1)NC(=O)NC1CCCCC1", "hERG current change (%, negative = inhibition) at 1uM": 1.4}, {"smiles": "O=C(NCCc1nnc2ccc(N3CCCC3)nn12)c1ccccc1", "hERG current change (%, negative = inhibition) at 1uM": -4.06}, {"smiles": "O=C(NC1CC2CCCC(C1)N2C(=O)Nc1ccccc1F)C1CC1", "note": "(centres unmarked)", "hERG current change (%, negative = inhibition) at 1uM": 16.9}, {"smiles": "CCCCNC(=O)c1ccc(CNc2c(N3CCC(C(=O)OCC)CC3)c(=O)c2=O)cc1", "hERG current change (%, negative = inhibition) at 1uM": -4.25}, {"smiles": "Cc1nc2cc([N+](=O)[O-])ccc2c(=O)n1-c1ccc(Br)cc1", "hERG current change (%, negative = inhibition) at 1uM": 10.8}, {"smiles": "CS(=O)(=O)N1CC(C(=O)NN)Oc2ccc(Cl)cc21", "note": "(centres unmarked)", "hERG current change (%, negative = inhibition) at 1uM": 10.7}, {"smiles": "O=c1cc(O)nc(SCc2ccc(Cl)cc2)[nH]1", "hERG current change (%, negative = inhibition) at 1uM": -1.97}, {"smiles": "Cc1ccccc1NC(=O)N1CCN(S(=O)(=O)c2ccccc2)CC1", "hERG current change (%, negative = inhibition) at 1uM": 14.8}, {"smiles": "C[C@H](NC(=O)c1nc[nH]c1C(=O)N1CCc2ccccc2C1)C(=O)OC(C)(C)C", "hERG current change (%, negative = inhibition) at 1uM": 8.53}, {"smiles": "COc1ccc(Cl)cc1C(=O)NCCCSc1ccccc1", "hERG current change (%, negative = inhibition) at 1uM": 20.7}, {"smiles": "O=C(CSc1nc2ccccc2s1)NCc1ccc2c(c1)OCO2", "hERG current change (%, negative = inhibition) at 1uM": 5.29}, {"smiles": "CC1CCN(C(=S)SCc2nc(N)nc(Nc3ccccc3)n2)CC1", "hERG current change (%, negative = inhibition) at 1uM": 9.75}, {"smiles": "CCc1nnc(NC(=O)COc2ccc3c(c2)OCO3)s1", "hERG current change (%, negative = inhibition) at 1uM": 11.6}, {"smiles": "CCCCCCSc1ccc([C@H]2N[C@@](Cc3ccccc3)(C(=O)OC)[C@H]3C(=O)N(C)C(=O)[C@@H]23)cc1.O=C(O)C(F)(F)F", "hERG current change (%, negative = inhibition) at 1uM": 7.73}, {"smiles": "CN(C)S(=O)(=O)c1cccc(-c2cn3ccccc3n2)c1", "hERG current change (%, negative = inhibition) at 1uM": 7.18}, {"smiles": "O=C(NCC1CCCN(Cc2cccc(C(F)(F)F)c2)C1)c1ccc(F)cc1", "note": "(centres unmarked)", "hERG current change (%, negative = inhibition) at 1uM": -5.71}, {"smiles": "C/C(CC(=O)NCc1ccc(Cl)cc1)=N\\NC(=O)Cc1ccccc1", "hERG current change (%, negative = inhibition) at 1uM": 8.4}, {"smiles": "Cc1ccc(-c2csc(N(C)C(=O)c3c(C)nn(-c4ccccc4)c3Cl)n2)cc1", "hERG current change (%, negative = inhibition) at 1uM": 19.8}, {"smiles": "CCOC(=O)c1ccc(NC(=O)CSc2nc(SC)ns2)cc1", "hERG current change (%, negative = inhibition) at 1uM": 13.3}, {"smiles": "O=C(COC(=O)c1ccccc1Oc1ccccc1)NC1CC1", "hERG current change (%, negative = inhibition) at 1uM": 3.68}, {"smiles": "CCOC(=O)CNC(=O)CNC(=O)c1nn(-c2ccc(OC)c(OC)c2)c(=O)c2ccccc12", "hERG current change (%, negative = inhibition) at 1uM": 9.4}, {"smiles": "COc1ccccc1C1CCN(C(=O)C2CCCCC2)CC1", "hERG current change (%, negative = inhibition) at 1uM": 10.8}, {"smiles": "CC(=Nc1ccc(C)cc1C)c1sc2ccccc2c1O", "hERG current change (%, negative = inhibition) at 1uM": 2.63}, {"smiles": "COc1ccc(CN2CC(=O)N(c3ccc(C)cc3)C2=S)cc1OC", "hERG current change (%, negative = inhibition) at 1uM": 5.32}, {"smiles": "O=C(NCCc1ccccc1)/C(=C/c1ccco1)c1ccccc1", "hERG current change (%, negative = inhibition) at 1uM": 10.9}, {"smiles": "O=C(CSc1nnc(NC(=O)C2CCC2)s1)Nc1ccccc1F", "hERG current change (%, negative = inhibition) at 1uM": 13.9}, {"smiles": "O=C(NC(Cc1ccccc1)C(=O)NC(Cc1ccccc1)C(=O)O)c1ccccc1", "note": "(stereo not drawn) (Bz-Phe-Phe-OH; configuration not given here)", "hERG current change (%, negative = inhibition) at 1uM": 19.7}, {"smiles": "COc1cc(-c2nnc(NC(=O)c3ccc(S(=O)(=O)N4CCOCC4)cc3)o2)cc(OC)c1OC", "hERG current change (%, negative = inhibition) at 1uM": 13.7}, {"smiles": "Cc1nonc1NC(=O)CSc1nc(C2CCCCC2)nc2ccccc12", "hERG current change (%, negative = inhibition) at 1uM": 3.38}, {"smiles": "COc1ccc2nc(C)c3cc(C)oc3c2c1", "hERG current change (%, negative = inhibition) at 1uM": 2.49}, {"smiles": "CC1CCCN(CCCOc2ccc([N+](=O)[O-])cc2)C1.O=C(O)C(=O)O", "note": "(centres unmarked)", "hERG current change (%, negative = inhibition) at 1uM": -77.4}, {"smiles": "Cc1ccc(Cc2c(C)[nH]c(=S)[nH]c2=O)cc1", "hERG current change (%, negative = inhibition) at 1uM": 15.3}, {"smiles": "CCn1c(SCc2cccc(F)c2)nnc1-c1ccncc1", "hERG current change (%, negative = inhibition) at 1uM": 11.9}, {"smiles": "CCOC(=O)CSc1nc2cc(C(F)(F)F)cnc2n1C", "hERG current change (%, negative = inhibition) at 1uM": 2.73}, {"smiles": "COc1ccc(NC(=O)c2nnn(Cc3cccc(F)c3)c2N)c(OC)c1", "hERG current change (%, negative = inhibition) at 1uM": 9.17}, {"smiles": "CCn1c(CC(C)C)n[nH]c1=S", "hERG current change (%, negative = inhibition) at 1uM": 2.92}, {"smiles": "CCOc1ccc(C(=O)CCC(=O)NCC(=O)OCc2ccccc2)cc1OCC", "hERG current change (%, negative = inhibition) at 1uM": 15.2}, {"smiles": "C#CCNC(=O)C1=C[C@@H](c2ccc(C(F)(F)F)cc2)C[C@@H](OCc2ccc(CO)cc2)O1", "hERG current change (%, negative = inhibition) at 1uM": 3.5}, {"smiles": "CCOc1ccc(C(N)=O)cc1OC", "hERG current change (%, negative = inhibition) at 1uM": 3.09}, {"smiles": "CCc1ccc(-n2c(SCC(=O)c3ccc4c(c3)NC(=O)CO4)nc3ccccc3c2=O)cc1", "hERG current change (%, negative = inhibition) at 1uM": 7.58}, {"smiles": "COc1cccc(Nc2nc(NCCO)c3ccccc3n2)c1.Cl", "hERG current change (%, negative = inhibition) at 1uM": -11.4}, {"smiles": "CN(CC(=O)Nc1ccc(N2CCOCC2)cc1)Cc1c(O)ccc2ccccc12", "hERG current change (%, negative = inhibition) at 1uM": 9.83}, {"smiles": "COc1cccc(CN(C)C(=O)C2CC(=O)N(c3ccc4c(c3)OCCO4)C2)c1", "note": "(centres unmarked)", "hERG current change (%, negative = inhibition) at 1uM": 14.1}, {"smiles": "O=C(COC(=O)CNS(=O)(=O)c1ccc2ccccc2c1)Nc1ccccc1Sc1ccccc1", "hERG current change (%, negative = inhibition) at 1uM": 17.1}, {"smiles": "CCOc1ccccc1/C=C\\c1nc(O)c([N+](=O)[O-])c(=O)[nH]1", "hERG current change (%, negative = inhibition) at 1uM": 12.1}, {"smiles": "COc1ccccc1NC(=O)c1nn(C)cc1Br", "hERG current change (%, negative = inhibition) at 1uM": 15.2}, {"smiles": "Cc1cccc(C)c1OCC(=O)NNC(=O)CCNC(=O)c1ccc(Br)cc1", "hERG current change (%, negative = inhibition) at 1uM": -4.97}, {"smiles": "CN1C(=O)N(C)c2cccc3cccc1c23", "hERG current change (%, negative = inhibition) at 1uM": 6.28}]}]}
